Experimental data reported in PubChem BioAssay AID624417 (National Center for Advancing Translational Sciences (NCATS), 2012).
The campaign covered roughly 410,000 compounds. About 6,400 (1.6%) were called active. The shares of active, inactive and inconclusive entries below differ from those in the screen. Calls come from the whole dose curve; as a rule, active = well fitted inhibition curve with a large enough effect; inconclusive = small, poorly fitted or top-dose-only effect; inactive = no such curve, though single readings can be large or run the other way. No potency is given beside an inconclusive call; the fits are too rough.

target: Glucagon-like peptide 1 receptor (Homo sapiens) (UniProt P43220); assay: qHTS of GLP-1 Receptor Inverse Agonists (Inhibition Mode); details: HEK293 GLP-1R CRE-luciferase, luminescence, 24 h, GLP-1R form is constitutively active; activity change, negative = inhibition: at 38.3 µM (top of the series) unless noted; note: nearly all actives have a fitted effect of over 55% in size
In short: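 Readout was luciferase luminescence, measured 12 min after detection reagent at room temperature. Beforehand, GLP-1R reporter HEK293 cells had sat 12 h, then received compounds for 24 hr at 37 deg C.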
% is set by controls: 0 for no effect and ±100 for the full control effect; potency is the fitted concentration of half-maximal effect; tags give direction and shape of the fitted curve.

Sequence of UniProt P43220 (P43220 whole entry, looked up): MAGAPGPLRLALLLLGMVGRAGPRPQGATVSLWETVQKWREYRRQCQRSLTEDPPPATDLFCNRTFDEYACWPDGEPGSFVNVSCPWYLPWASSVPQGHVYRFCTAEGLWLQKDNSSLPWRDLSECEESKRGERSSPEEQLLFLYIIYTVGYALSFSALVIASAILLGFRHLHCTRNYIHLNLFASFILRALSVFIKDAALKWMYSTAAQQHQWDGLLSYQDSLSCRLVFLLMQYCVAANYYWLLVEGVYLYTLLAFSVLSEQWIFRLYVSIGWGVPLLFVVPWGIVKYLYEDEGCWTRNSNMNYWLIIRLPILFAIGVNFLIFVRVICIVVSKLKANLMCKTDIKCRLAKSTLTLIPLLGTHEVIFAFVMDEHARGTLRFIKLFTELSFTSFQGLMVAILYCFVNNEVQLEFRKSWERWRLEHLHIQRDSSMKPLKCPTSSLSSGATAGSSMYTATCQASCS

Structure (SMILES)	Potency	activity change, negative = inhibition
CCOc1ccc(C2NC(=O)NC(C)=C2C(=O)OCc2ccccc2)cc1 (stereo not given)	inconclusive [inhibitor, full curve]	–
Cc1ccc(Nc2ccc(C(=O)N3CCCC3)cn2)c(C)c1	–	inactive: 48.4%
COc1ccc(NC(=O)CN(C)C(=O)CSCc2ccc(C)cc2)cc1	inconclusive [inhibitor, partial curve, poor fit]	–
CCCS(=O)(=O)NC(=O)C1(C)CCN(C(=O)Cc2ccc(OC)c(OC)c2)C1 (stereo not given)	–	inactive: 23.3%
Cc1cc2oc(=O)cc(CN3CCCCC3)c2cc1C(C)C	inconclusive [inhibitor, partial curve, poor fit]	–
O=C(C[n+]1ccccc1)Nc1ccccc1[N+](=O)[O-]	–	inactive: 15.6%
COc1ccc(NC(=O)CN(C)S(=O)(=O)c2ccc3[nH]c4c(c3c2)CCCC4)cc1OC	inconclusive [inhibitor, single point]	–
O=C(Nc1ccc2oc(-c3cccnc3)nc2c1)c1ccc(-c2cccc(OC(F)(F)F)c2)o1	–	inactive: 3.68%
COc1cccc(N2CCN(C(=O)c3ccc(CS(=O)c4cccc(Cl)c4)o3)CC2)c1 (stereo not given)	inconclusive [inhibitor, full curve, poor fit]	–
C[C@]12c3[nH]c4cc(-c5ccco5)ccc4c3CCN1C(=O)[C@@H](CC(=O)NCc1cccc(C(F)(F)F)c1)C[C@@H]2C(=O)N1CCOCC1	inconclusive [inhibitor, single point]	–
Cc1[nH]nc(-c2ccc(OCc3cnn(-c4ccccc4)c3)c(C)c2O)c1Oc1ccccc1	inconclusive [inhibitor, single point]	–
COc1ccc([C@H]2CC(=O)C=C(c3cc(C)ccc3OC)C2)cc1	–	inactive: -8.33%
O=C(Cn1cnc2c(nnn2Cc2ccc(F)cc2)c1=O)NCc1ccccc1	inconclusive [inhibitor, partial curve, poor fit]	–
COc1ccc(NC(=O)CN2CCN(CC(=O)Nc3ccccc3Cl)CC2)c(OC)c1	–	inactive: 0%
CC(NC(=O)c1ccc2nc(CCc3ccccc3)oc2c1)c1ccccc1 (stereo not given)	inconclusive [inhibitor, single point]	–
CN1/C(=C\C(=O)COC(=O)c2ccccc2O)C(C)(C)c2ccccc21	inconclusive [inhibitor, single point]	–
Cc1cccc(Nc2nc(N3CCOCC3)nc(N3CCOCC3)n2)c1	active: 5.62 µM	–
CCOc1cc(/C=C2\C(=O)ON=C2c2ccccc2)cc(Br)c1O	inconclusive [inhibitor, single point]	–
COc1ccc(-c2csc3ncnc(Oc4cccc5ccc(C)nc45)c23)cc1	active: 10 µM	–
CCOc1ccc(N(CC(=O)NC(C)(C)C)C(=O)CCC(=O)Nc2nccs2)cc1	inconclusive [inhibitor, single point]	–

Structure (SMILES)	Potency	activity change, negative = inhibition
Cc1ccc2c(c1)C1CN(C)CCC1N2S(=O)(=O)c1ccc(C(C)C)cc1 (stereo not given)	inconclusive [inhibitor, single point]	–
CCOC(=O)c1c(NC(=O)C(F)(OC)C(F)(F)F)sc(C(=O)N2CCCCC2)c1C (stereo not given)	inconclusive [inhibitor, single point]	–
C/C(=N\Nc1nc2c(s1)CCCC2)c1ccccc1	inconclusive [inhibitor, single point]	–
COc1ccc(NC(=O)c2cc(-c3cc(Cl)ccc3C)n[nH]2)cn1	inconclusive [inhibitor, single point]	–
O=S(=O)(NC1CCN(Cc2ccccc2)CC1)c1cccc(S(=O)(=O)N2CCOCC2)c1	inconclusive [inhibitor, partial curve, poor fit]	–
Cc1sc(N)c(C(=O)c2ccccc2Cl)c1C	inconclusive [inhibitor, partial curve, poor fit]	–
CC(C)C[C@H]1CNC(=O)C(=O)N1C[C@H]1CCCN1C[C@H](Cc1ccc(O)cc1)N1C[C@H](CC(C)C)N(CC2CCCCCC2)C(=O)C1=O	–	inactive: 16.7%
Cc1ccccc1-n1nnnc1SCC(=O)Nc1ccc(S(=O)(=O)N2CCCC2)cc1	active: 11.2 µM	–
CCCN1CCN(c2ncnc3sc(C(=O)Nc4ccc(N(CC)CC)cc4C)c(C)c23)CC1	inconclusive [inhibitor, single point]	–
CC(C)C[C@H](NC(=O)c1nc[nH]c1C(=O)N1CCN(C(=O)OC(C)(C)C)CC1)C(=O)OC(C)(C)C	inconclusive [inhibitor, full curve, poor fit]	–
CCOC(=O)c1c(C)[nH]c(N=Nc2cccc(OC)c2)c1C	inconclusive [inhibitor, single point]	–
O=C(CSCc1cnn(-c2ccccc2)c1-n1cccc1)NCc1ccccc1F	active: 12.6 µM	–
CCOC(=O)[C@]12CCC=C1N(Cc1ccc(Cl)cc1Cl)C(=O)[C@H](CC(=O)NCCC(C)C)C2	inconclusive [inhibitor, single point]	–
Cc1cc(C)cc(Nc2ncc3c(n2)CC(c2ccco2)CC3=O)c1 (stereo not given)	inconclusive [inhibitor, partial curve, poor fit]	–
COc1cccc(-c2csc(N3CCN(C(=S)Nc4ccccc4C)CC3)n2)c1	inconclusive [inhibitor, single point]	–
COc1cccc(C(=O)Nc2sc3c(c2C#N)CCN(C(C)=O)C3)c1	inconclusive [inhibitor, full curve]	–
CC(C)N1CCN(Cc2ccccc2-c2ccco2)CC1CCO (stereo not given)	inconclusive [inhibitor, single point]	–
Cc1ccc(Cl)cc1N1CCN(C(=O)CCSCc2ccccc2F)CC1	inconclusive [inhibitor, single point]	–
O=C(CSc1nc2ccccc2c(=O)n1-c1ccc(F)cc1)Nc1ccc2c(c1)CCC2	inconclusive [inhibitor, full curve, poor fit]	–
COc1ccc(NC(=O)c2oc3ccc(S(=O)(=O)N(C)C4CCCCC4)cc3c2C)cc1Cl	–	inactive: 1.21%
